Source: patent US6323219A, “Methods for treating immunomediated inflammatory disorders” (Ortho-McNeil Pharmaceutical, Inc., priority 1999, dated 2001)

Tests used:
Yucatan swine skin [1] = test: Yucatan swine skin pigmentation, topical, visual/chromameter/histology; settings: 250 μM, eight weeks; for histological repigmentation: F&M
[2] = test system: MelanoDerm human epidermal equivalents; test: Pigmentation of MelanoDerm epidermal equivalents (DOPA, H&E or F&M staining, image analysis); format: cell-based; settings: MelanoDerm, three days of treatment, stained on fourth day; FIG. 1B, FIG. 2, FIG. 3
Yucatan swine skin [3] = test: Electron microscopy of treated Yucatan swine skin; settings: eight weeks of treatment

For CN[C@H](Cc1ccccc1)C(=O)N1CCC[C@H]1C(=O)N[C@@H](CCCNC(=N)N)C(=O)c1nc2ccccc2s1 [Compound I], the “permanent damage to pigmentation machinery” value (Yucatan swine skin [1]) was “does not induce a permanent damage”, the “depigmentation at end of treatment” value (Yucatan swine skin [1]; twice daily, five days a week, FIG. 12B) was “All sites showed visible depigmentation” and the histological repigmentation (Yucatan swine skin [1]; four weeks after end of treatment, FIG. 12E) was “fully repigmented”. The histological repigmentation (Yucatan swine skin [1]; one week post treatment) was “repigmentation was demonstrated histologically”, the “reversal of depigmenting effect” value (Yucatan swine skin [1]; visual, fourth week post treatment) was “complete reversal” and the “persistence of depigmenting effect after treatment” value (Yucatan swine skin [1]; visual, one and two weeks post treatment) was “could be visualized at one and two weeks post treatment”. For the same compound, the “pigmentation/melanogenesis in epidermal equivalents” value [2] was “decreased pigmentation”, the melanosomes within keratinocytes (Yucatan swine skin [3]; compared to controls, FIGS. 11D, 11E, 11F) was “smaller and less pigmented” and the “melanosome distribution in skin” value (Yucatan swine skin [3]; compared to untreated controls, FIGS. 11G, 11H) was “abnormal”.
